Results: paper PMC12136788
The list shows a part of the results.

B1: chr8:104447970:104447971:+_ENSG00000164934_ENST00000297579|hu_hu|hu_hu_hu_mus_False|88_88 (ssRNA)
RNA: GGGAGUUCUACAGUCCGACGAUCAUACACUUCCCUGCUUCGGCUCUUGUCUACAGGAAAGAUUCUAAUAGACUUAUCAAAGCUGGCAGACACAAAUUCCUUCCCAGUGGGAGAGUAGUCCACAUCAAGUACUGCAGACACGUGCAACAGAGGAUUGAGCAUCA
B2: 32429686_32431999_570_CDS_ENSG00000152683_ENST00000406369|human|control|control (ssRNA)
RNA: GGGAGUUCUACAGUCCGACGAUCUCUGAUGAGUUUGUCCAACUGACCAAUAACAUGGGGUGGUGUUGUCUGGAGUAAGACUUUCCCACUGUACACACUCAUGGGAUACAUAGUGCCAAAUGUCAUCAAGGCAAUAGCUAUAGCCAACAGAGGAUUGAGCAUCA
B3: chr1:163112212:163112213:-_ENSG00000143248_ENST00000313961|hu_hu|hu_hu_hu_mus_False|18_88 (ssRNA)
RNA: GGGAGUUCUACAGUCCGACGAUCUUUUAUUAUCAGUAAGAGUGAGUCACAUAGUACGCAAAGUAUUGGAUACAAUAAUCAGGAAACAAACACUAUUGGUCCAGAAUUUAAAACUUUUGGGAUAAAUUGCUGGCACAGGACUUACAACAGAGGAUUGAGCAUCA
B4: chr1:150203005:150203006:-_ENSG00000143401_ENST00000314136|hu_hu|motif|central (ssRNA)
RNA: GGGAGUUCUACAGUCCGACGAUCAAGAUUUGGACAUUUCUCUGCCAGGACUUCCAAGCCUCCAGAAAUUAUAUUAUCACGGAGCUCCAAUUUUCGAAGUUUAUUUAAGCUGGGAAGCCGGGCCAGCGAACUUAGUUCCACAUUCAACAGAGGAUUGAGCAUCA
B5: chr7:151048522:151048523:+_ENSG00000013374_ENST00000566856|hu_mus|hu_hu_hu_mus_True|18_48 (ssRNA)
RNA: GGGAGUUCUACAGUCCGACGAUCCUGUUUCUUAUUUAUUACGAUCUUGAUGUAAUUUUCUUGAAAUCCGAAAGUUUCAGCUAUUUGGGACCUCAGUUCUCUACCAGUGACAUGCAAUCGGGUCUCCAACAAGCUUUUCUUAUCCAACAGAGGAUUGAGCAUCA
B6: chr4:83978449:83978450:+_ENSG00000138663_ENST00000264389|hu_hu|FALSE|FALSE (ssRNA)
RNA: GGGAGUUCUACAGUCCGACGAUCUAUUGUCUUGUAAGAGAGCUCAUUGUACCUUUGUGCAGCUUCAAUGAAUUUUCUUCUAUAAUCAAGAACACGUGCAUAGCAUACCUUAUAAUGUAUCUGUAAUUGUUCAUUGGUUGAUUCCAACAGAGGAUUGAGCAUCA
B7: chr6:135286264:135286265:-_ENSG00000112339_ENST00000367826|hu_mus|motif|central (ssRNA)
RNA: GGGAGUUCUACAGUCCGACGAUCCUCUGGCAGCUGGCAACUGGGAAGUUUUGCAGAGUAAUCCUUAAUACUUGUUGGCAGCGGACUGUACUUUAGUGUCUCUCAUCUAACAAUCAUGACUGCAUGCUGUUUCCUUAGCUGCACCAACAGAGGAUUGAGCAUCA
B8: chr2:179515052:179515053:+_ENSMUSG00000000305_ENSMUST00000000314|mus_hu|mus_mus_mus_hu_False|1_38 (ssRNA)
RNA: GGGAGUUCUACAGUCCGACGAUCGCUGUCCCAUGCAGUCACCGUGAACGCCACCUGCUCGGAGGGGACCUGCAGCUCCCGGGUGGCGAAGACUGUCCCAUCCGCCCCAACUUUGAAGUCCAUGCUGUUGGUCUCAUACUGCAUCAACAGAGGAUUGAGCAUCA
B9: chr2:148695906:148695907:-_ENSG00000115947_ENST00000542387|hu_hu|motif|central (ssRNA)
RNA: GGGAGUUCUACAGUCCGACGAUCGACCAUUUGAAAAUUAAAUGGCUCUUCCUCAUAGAUGUCAUUUAAAUGUUUCAUUGCGGUUAUAAGACAGAUUUCCAAGACUGAUAGACCAUGUACAAUAUUUGCUUUCGAGUCCAUGCUCAACAGAGGAUUGAGCAUCA
B10: chr12:57064132:57064133:-_ENSG00000110958_ENST00000262033|hu_hu|motif|central (ssRNA)
RNA: GGGAGUUCUACAGUCCGACGAUCAGACAUGUCUUCAUCUGAAUCAUCUUCCCAGUCUUUCCAAUUAUUGAAGUCGACACGGAGCCAAUUAAGCUUUGCCCUUUCUUUUGUUAACCUUGGCCAUGACUGGCCAGAUUCUCCUUUCAACAGAGGAUUGAGCAUCA
B11: chr16:17043922:17043923:+_ENSMUSG00000063358_ENSMUST00000069107|mus_hu|FALSE|FALSE (ssRNA)
RNA: GGGAGUUCUACAGUCCGACGAUCAGGGCUGCCAGGAGGAAUUCUCUGGACUGAAGAAAUUCUUUGAAAGCAUAAAAGCCACAACUACCAGAAACCGCCCCUCCAAACGGCUCAAAGGAGUCAAAGUGGAUAAGCCAAGACGGGCAACAGAGGAUUGAGCAUCA
B12: chr14:102349618:102349619:+_ENSG00000078304_ENST00000445439|hu_mus|FALSE|FALSE (ssRNA)
RNA: GGGAGUUCUACAGUCCGACGAUCUACAAACUUCUGAUCAAUAUAUUUCUUUGCUAUAUUGGGUUGGAAAUCUGGAGACUCUAAAAAUCUUAAGAAAAAUUCAUAAACAAGCUGCAGAUGAGGCCAGGCUGCUUCUAACGUUGGCAACAGAGGAUUGAGCAUCA
B13: chr9:59598888:59598889:+_ENSMUSG00000039585_ENSMUST00000128341|mus_mus|motif|central (ssRNA)
RNA: GGGAGUUCUACAGUCCGACGAUCGGACUGGGCAGGCACAUCCCCCGCCGCACCCCGCCCAGAGAGCACGCGUUGGAAGCGGAACCGCGGUCCCUGCUUUUGCCCGGGGACCGGUAUCUCCGCCGCAGUCCCUCCCCGUCCUGCCAACAGAGGAUUGAGCAUCA
B14: chr14:21319500:21319501:-_ENSMUSG00000021816_ENSMUST00000161445|mus_mus|FALSE|FALSE (ssRNA)
RNA: GGGAGUUCUACAGUCCGACGAUCGAGCUGUACUCCAGGGCAUGAGGGAAGCAGGCCACCAAAGUAAAGGGAAAUACCAAACUACAGUGGUAAUCAGUACAGGUCAGUCACUGUAAAAUUAGCACAUGGUUCCAUUUAGUUUAACAACAGAGGAUUGAGCAUCA
B15: chr8:106942660:106942661:-_ENSMUSG00000035770_ENSMUST00000041769|mus_mus|motif|central (ssRNA)
RNA: GGGAGUUCUACAGUCCGACGAUCCUUUUGUAUCAAGGUUUCAAAAUCACACUAUUAGGCAGUGUCUUUGCAAGAAUUCCGGGUUUCUGAGGUCAUUCACUUUGCCCUGGCUGCUACGGAGAUCAGUUGACCCUCCAUCAUGGUCAACAGAGGAUUGAGCAUCA
B16: chr14:21343058:21343059:-_ENSMUSG00000021816_ENSMUST00000161445|perfect_dup|motif|central (ssRNA)
RNA: GGGAGUUCUACAGUCCGACGAUCUGUAGUUUGACUUUUUCUGUACAUUCUAUAGCCUGCAUCUUGAGCUUCAUGAGCUCGGAUAAUCGAUAACAAAUUAUUGUUUUGCAAAAAUUCACACACUGCUGGAUAGUUAUAAAAAUACAACAGAGGAUUGAGCAUCA
B17: chr7:136912681:136912682:-_ENSG00000105894_ENST00000348225|hu_hu|FALSE|FALSE (ssRNA)
RNA: GGGAGUUCUACAGUCCGACGAUCAAACGCUACUACAAAAAUUUUCUUUUCUUUUUGUUUUUGCUUAUUGUGUACUUAGCUAUAGAUAAUUUUUGAAUACAAAGCCUACGGUACAUAUAAAUGCAAUAGUUAACUGAUCCUGUUCAACAGAGGAUUGAGCAUCA
B18: chr16:94664741:94664742:+_ENSMUSG00000040785_ENSMUST00000117648|mus_hu|mus_mus_mus_hu_False|18_48 (ssRNA)
RNA: GGGAGUUCUACAGUCCGACGAUCUGGUACUGAUCUUGGUAGCUGAUAUUCAGGAGAAAGGCUGGCCAAGGGUGUAUAUAUGCUGGUGAACUGCGACAAACCUGGUAACACGUUUAUGUACGCUGGUGGUGUCUGGGUGAUAUCCAACAGAGGAUUGAGCAUCA
B19: chr15:75216061:75216062:-_ENSG00000178741_ENST00000564811|perfect_dup|motif|central (ssRNA)
RNA: GGGAGUUCUACAGUCCGACGAUCUUUGUCAAGGCCCAGCUCCUCUGGAGUGGAGAUUCCCAAUUCAUUUAAAGUUGGUCGGAGUUCCUGGAUGACAUAGGGAUAGAUUUCCUUAUGAGGUCCUGCUUUGUCCUUAACAACCUCCAACAGAGGAUUGAGCAUCA
B20: chr16:32386223:32386224:+_ENSMUSG00000053774_ENSMUST00000115151|mus_hu|FALSE|FALSE (ssRNA)
RNA: GGGAGUUCUACAGUCCGACGAUCACUCUAAUUUGAUUUUGGGUUUUGUUGGCAGAAAAAGCCCAAGACAUCUGAAAAUUACUAGUAACCUCCGCCAUCCUCCUUACUAAAUGUUGUCUUCUGAAUGGAGUUGAAAGGUCUUCCCAACAGAGGAUUGAGCAUCA
B21: 118281626_118282927_3670_CDS_ENSMUSG00000005102_ENSMUST00000005233|mouse|control|control (ssRNA)
RNA: GGGAGUUCUACAGUCCGACGAUCCCCACAGUGUAGGAGUAUUGCCUUCAGAAGCAUCGUAUGGUUCAAGUAAAUGCUGUAAUUCCUUUCCUGAAGUGCAGGAAACUCCUGGAUUAUUUCAUAGAUGGUGUAGAUGGUUUCGGCCAACAGAGGAUUGAGCAUCA
B22: chr9:58049150:58049151:-_ENSMUSG00000051243_ENSMUST00000114144|mus_mus|FALSE|FALSE (ssRNA)
RNA: GGGAGUUCUACAGUCCGACGAUCACUUGCAGUGUGAUGCUGUGGGGCUGCGAGCCGGUCUCCAGACUCAGGUGACAGUCUAAGGGAGCUUCUGGCAUCUGUUGCCCGUCUUCAACCCUGCAGAACCCAGUGCCGGUCCAGACACAACAGAGGAUUGAGCAUCA

Target: T1, UNK ZnF1-3 (human, UniProt Q9C0B0 31-174)
T1 sequence: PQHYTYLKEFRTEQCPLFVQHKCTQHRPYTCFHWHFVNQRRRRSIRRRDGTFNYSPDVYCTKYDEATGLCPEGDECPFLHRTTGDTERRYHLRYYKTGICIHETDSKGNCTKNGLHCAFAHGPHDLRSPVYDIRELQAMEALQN
Test: nsRBNS (natural sequence RNA bind-n-seq); RBNS binding buffer (assumed for nsRBNS): 25 mM Tris pH 7.5, 150 mM KCl, 3 mM MgCl2, 0.01% Triton X-100, 500 ug/ml BSA, 20 U/ml SUPERase-In, 4 C; UNK is unkempt and MSI1 is Musashi-1; names of the RNAs are library labels; protein concentration not given here; high values mean tight binding

Binder | binding signal [enrichment R]
B1 | 1.01
B2 | 0.963
B3 | 1.51
B4 | 1.07
B5 | 0.654
B6 | 0.625
B7 | 0.897
B8 | 0.785
B9 | 0.775
B10 | 0.574
B11 | 1.6
B12 | 1.76
B13 | 1.07
B14 | 1.28
B15 | 0.807
B16 | 1.06
B17 | 0.567
B18 | 0.999
B19 | 0.656
B20 | 1.45
B21 | 1.59
B22 | 0.697
